# Screen size: about 2,200 compounds; fewer than 10 were called active. This is one part of the list. Entries without a call are filed as inconclusive in the source.
# Biological target: GTPase KRas (Homo sapiens) (UniProt P01116)
# Assay: Cysteine mutants labelled by reactive fragments (mass read-out) (AID 2202238)
# Design: protein at 5 µM with 500 µM competing thiol for 1.5 h
# Conditions: KRAS G12D cysteine mutants, disulfide tethering, MALDI-TOF labeling; stronger effect = higher value; H27C mutant labeling; fragment at 500 µM
# Chain of UniProt P01116 (P01116 whole entry, looked up, the tested form may be a part): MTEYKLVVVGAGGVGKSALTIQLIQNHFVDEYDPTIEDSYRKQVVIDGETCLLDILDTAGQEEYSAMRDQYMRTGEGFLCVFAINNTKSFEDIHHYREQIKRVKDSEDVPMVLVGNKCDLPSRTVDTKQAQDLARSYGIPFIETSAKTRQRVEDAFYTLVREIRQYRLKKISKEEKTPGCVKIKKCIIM
row,Structure (SMILES),percent labeling [%]
1,CN1C2(CCC2)COCC1(CO)CNC(=O)CCS (configuration not stated),36.3
2,O=C(Cc1ccc(N2CCCC2=O)cc1)NCCS,38.5
3,Cc1nc(CN2CCN(C(=O)CCS)CC2)oc1C,35.2
4,O=C(Cc1nc2ccccn2c1Br)NCCS,22.7
5,O=C(Cn1cnc(-c2ccccc2)n1)NCCS,25.4
6,O=C(NCCS)c1csc(C2CCCO2)n1 (configuration not stated),32.2
7,COc1ccc(Br)c(C(=O)NCCCNC(=O)CCS)c1,34.6
8,O=C(CCS)NC1CCN(c2nc(Cl)ncc2F)C1 (configuration not stated),48.6
9,CCCc1noc(-c2cccc(CNC(=O)CCS)c2)n1,32.8
10,O=C(NCCS)C1CCCN1c1ncc(C(F)(F)F)cc1Cl (configuration not stated),16.6
11,CC(CC(=O)NCCS)N1CCc2ccccc21 (configuration not stated),8.3
12,O=C(CCS)N1CCc2[nH]c3ccc(F)cc3c(=O)c2C1,44.9
13,O=C(CCS)N1CCN(Cc2nc3ccsc3c(=O)[nH]2)CC1,41.9
14,CCn1ncnc1-c1ccc(C(=O)NCCS)cc1,41.8
15,O=C(CCS)NC1CCc2sc(Cl)cc21 (configuration not stated),30.8
16,O=C(NCCS)C1CCN(S(=O)(=O)c2ccc(F)cc2Cl)CC1,40.1
17,Cc1nn(CCO)cc1CNC(=O)CCS,31
18,O=C(NCCS)C1(C(F)(F)F)CCCCO1 (configuration not stated),27.1
19,O=C(NCCS)c1c[nH]cc1-c1cc(Cl)c2c(c1)OCCO2,21.8
20,O=C(NCCS)c1ncsc1-c1ccccc1,35.3
21,O=C(NCCS)c1cc(-c2ccc3c(c2)OCO3)n[nH]1,28.9
22,CCn1cc(C(=O)NCCS)c(C(F)(F)F)n1,33.8
23,O=C(NCCS)c1cc(N2CCNC2=O)c(F)cc1F,41.9
24,O=C(NCCS)c1cc(Oc2cccc(Br)c2)ccn1,25.7

row,Structure (SMILES),percent labeling [%]
1,CN(C)Cc1cnn2c1CN(C(=O)CCS)CC2,54.3
2,O=C(CCS)NCc1ccc2cnccc2c1,38.6
3,O=C(CCS)Nc1ccc(-c2cn3ccsc3n2)cc1,37
4,O=C(CCS)NC1Cc2[nH]ncc2C(C(F)(F)F)C1 (configuration not stated),38.4
5,Cc1cc(=O)cc(C)n1CCCC(=O)NCCS,28.5
6,Cc1cc(N2CCC(N(C)C(=O)CCS)CC2)nc(C)n1,55.1
7,Cn1cc(-c2cc(C(F)(F)F)nn2CCCNC(=O)CCS)cn1,33.3
8,O=C(CCS)N1CCC(Cc2cccc(F)c2)CC1,43
9,O=C(CCS)Nc1cccnc1Oc1ccccc1,46.2
10,CN1CCn2nc(NC(=O)CCS)cc2C1,37.7
11,Cc1oc2ccccc2c1CN(C)C(=O)CCS,31.3
12,O=C(NCCS)c1nccnc1C(=O)NCc1ccc(F)cc1,31.2
13,O=C(CCS)Nc1ccccc1OCC(F)(F)F,34.8
14,O=C(NCCS)c1[nH]nc2c1COc1ccccc1-2,26.6
15,O=C(Nc1cn[nH]c1)C1CCN(C(=O)CCS)C1 (configuration not stated),36.7
16,CS(=O)(=O)C[C@@H]1C[C@H](F)CN1C(=O)CCS,35.3
17,Cn1cc(C2(C(=O)NCCS)CCCO2)cn1 (configuration not stated),33.6
18,CC(NC(=O)NCC(=O)NCCS)c1ccco1 (configuration not stated),26.1
19,O=C(CN1C(=O)c2ccccc2C(F)(F)C1=O)NCCS,20.4
20,CC(NC(=O)CCS)c1noc(Cc2noc3ccccc23)n1 (configuration not stated),40.6
21,Cc1nn(C)c(C)c1[C@@H]1OCC[C@H]1C(=O)NCCS,26.2
22,O=C(CCS)NCc1cn2cc(Cl)ccc2n1,42.4
23,O=C(Cc1c[nH]c2cnccc12)NCCS,51.3
24,Cn1c(=O)[nH]c(=O)c2[nH]c(CCC(=O)NCCS)nc21,40.7

row,Structure (SMILES),percent labeling [%]
1,O=C(NCCS)c1nc[nH]c1C(F)(F)F,34.1
2,O=C(NCCS)c1cn2c(Br)cnc2s1,46.6
3,O=C(CCS)N(CCn1ccnc1)Cc1ccsc1,44.4
4,N#Cc1cccnc1N1CCCN(C(=O)CCS)CC1,44.2
5,O=C(CC(c1ccccc1)c1ncc[nH]1)NCCS (configuration not stated),31
6,O=C(NCCS)C1CC1c1c(F)cccc1F (configuration not stated),26.7
7,Cc1ccc(-c2ccncc2)cc1NC(=O)CCS,41.4
8,O=C(CCS)NC1CC(c2ccccc2F)C1 (configuration not stated),45.3
9,O=C(CCNC(=O)NC1CCCCC1)NCCS,29.1
10,Cc1noc(C)c1CN(C(=O)CCS)C1CC1,40.6
11,Cc1c(C(=O)NCCS)cccc1-c1ccccn1,38.8
12,Cc1[nH]c(=O)c(C#N)c(C)c1CCC(=O)NCCS,33.8
13,O=C(NCCS)c1c(F)ccc(C(F)(F)F)c1F,31.6
14,CC1(C)CN(C(=O)CCS)Cc2ccccc2O1,44.4
15,CC(=O)NC(Cc1c[nH]c2cc(F)ccc12)C(=O)NCCS (configuration not stated),35.1
16,Cn1cc(-c2ncccc2C(=O)NCCS)cn1,30.9
17,Cc1c(CC(=O)NCCS)nnn1-c1ccccc1,39
18,O=C(NCCS)c1cn(-c2ccc(Br)cc2)cn1,22.1
19,O=C(CCS)Nc1ccc(N2CCOCC2)cc1Cl,40.2
20,Cc1cc(C)c(C(=O)NCCS)c(C)c1Br,36.8
21,CC(C)N(C)c1ccc(C(=O)NCCS)cc1,26
22,Cn1cc(C(=O)NCCS)c(-c2cccnc2)n1,24.9
23,Cc1nc(CCC(=O)NCCS)oc1-c1ccccc1,27.9
24,O=C(NCCS)C1CCN(C(=O)c2ccc3ccccc3c2)CC1,24.3

row,Structure (SMILES),percent labeling [%]
1,O=C(NCCS)c1cc(-n2ccnn2)ccc1F,47.6
2,O=C(CCS)NC1CC2(CCC2)C12CCC2 (configuration not stated),39.3
3,O=C(NC1CCN(C(=O)CCS)CC1)C1CC1,33.1
4,Cc1cc(C)c(N2CC(C(=O)NCCS)CC2=O)c(C)c1 (configuration not stated),50.4
5,O=C(CCS)NCC1=CS(=O)(=O)c2ccccc21,36.7
6,O=C(CCS)NC1CCN(CCc2ccccc2)CC1,51.5
7,O=C(CCc1cccc(Br)c1F)NCCS,35.4
8,O=C(NCCS)C1(c2cccc(Cl)c2)CCCC1,28
9,CC(C)(C(=O)NCCS)c1csc(-c2c(F)cccc2F)n1,24.6
10,CN(CCCC(=O)NCCS)C(=O)c1ccncc1,31.9
11,O=C(NCCS)C1CCc2nc(C(F)(F)F)cn2C1 (configuration not stated),33.9
12,Cc1nc(-c2cccs2)sc1C(=O)NCCS,29.2
13,O=C(CCS)NC1(c2nccs2)CCCC1,33.6
14,O=C(CCS)Nc1cc(-c2ccccc2)nn1Cc1ccccc1,19.9
15,O=C(Cn1c(-c2ccccc2)cc2ccccc21)NCCS,24
16,Cc1nc2c(C(N)=O)ncn2c(C)c1CCC(=O)NCCS,30.5
17,O=C(NCCS)c1cnc2ccccc2n1,52.2
18,O=C(Cn1c(-c2cccc(Cl)c2Cl)nc2ccccc21)NCCS,31.9
19,Cc1cc(NC(=O)CCS)cnc1NC(=O)c1cccc(O)c1,44.7
20,O=C(NCCS)c1nc(Br)cs1,40.1
21,Cc1nc(=O)[nH]c(C)c1CCC(=O)NCCS,25.3
22,O=C(CCNC(=O)Cc1ccccc1)NCCS,25.4
23,O=C(CCS)N1CCCCC1c1noc(=O)[nH]1 (configuration not stated),18.8
24,Cc1c(C(=O)NCCS)[nH]c(=O)c2ccccc12,29.4

row,Structure (SMILES),percent labeling [%]
1,O=C(NCCS)C1CCN(S(=O)(=O)c2ccc(OC(F)(F)F)cc2Cl)CC1,8.9
2,O=C(NCCS)c1coc(-c2ccc(F)cc2)n1,22.4
3,Cc1csc(Nc2ccc(C(=O)NCCS)cc2)n1,35.6
4,CC(C)(C)OC(=O)C1CC(O)(C2CCN(C(=O)CCS)CC2)C1 (configuration not stated),30.7
5,O=C(NCCS)c1nsc2cc(Br)ccc12,22.9
6,O=C(NCCS)c1cnn(-c2cccc(Br)c2)c1,37.9
7,O=C(NCCS)C1(c2cccs2)CCCCC1,23.3
8,CC(C)(C)c1noc2ncc(C(=O)NCCS)cc12,35.6
9,O=C(CCS)NCCC1CN(c2ncnc3[nH]ncc23)c2ccccc21 (configuration not stated),31.3
10,COc1ccc2[nH]c(C(=O)NCCS)cc2c1OC,27.9
11,O=C(NCCS)c1cc(C2CC2)nc2onc(-c3ccccc3)c12,16.5
12,COc1ccc(Br)cc1-c1nc(C(=O)NCCS)cs1,39.4
13,CC(C)(C(=O)NCCS)c1ccc(Cl)c(Cl)c1,25.7
14,Cc1nc2sccn2c1C(=O)NCCS,45.4
15,Cc1cc(CC(C)(C)C(=O)NCCS)ccc1Br,16.4
16,CC1CCN(c2cc(C(=O)NCCS)ccn2)C1 (configuration not stated),35.5
17,Cc1ncc(Cc2cccc(C(=O)NCCS)c2)s1,48.7
18,O=C(NCCS)C1COc2ccc(O)cc2O1 (configuration not stated),40
19,O=C(CC1(N2CCOCC2)CCCC1)NCCS,19.9
20,O=C(CCS)Nc1ccc2nc(C(F)F)[nH]c2c1,37.6
21,Cn1ccnc1[C@@H]1OCCC[C@H]1C(=O)NCCS,20.7
22,O=C(NCCS)C1(C(F)(F)F)CCOCC1,38.3
23,CO[C@H]1CCN(Cc2nc(C(=O)NCCS)co2)C1,32.7
24,Cc1sc(NC(=O)CCS)nc1-c1ccc2c(c1)CCC(=O)N2,28.7

row,Structure (SMILES),percent labeling [%]
1,Cc1nnc(CN(C)CC(=O)NCCS)n1C,15.1
2,O=C(CCS)NCc1nc(-c2nn[nH]n2)cs1,24.5
3,O=C(CCS)Nc1cnc2c(c1)COCC2,36.6
4,CC(C)Cn1ccc2c(C(=O)NCCS)cccc21,25.7
5,Cc1c(-c2ccc(Cl)cc2)n[nH]c1C(=O)NCCS,16.5
6,O=C(CCS)NCCn1cc(Br)ccc1=O,39.8
7,CCOC(=O)C(NC(=O)CCS)c1c(C)nn(Cc2ccccc2)c1C (configuration not stated),24.4
8,O=C(CCS)NCC(=O)Nc1nccs1,33.2
9,CC(O)(Cn1ccc2sccc2c1=O)C(=O)NCCS (configuration not stated),41
10,CC1(C)CCC(C(=O)NCCS)C(c2ccccc2)C1 (configuration not stated),26.3
11,O=C(NCCS)[C@@H]1OCCO[C@@H]1c1ccccc1,27.4
12,Cc1ccc2ncc(NC(=O)CCS)cc2c1,29
13,O=C(CCS)NCC1(c2cccc(C(F)(F)F)c2)CCC1,32.3
14,O=C(CC1CCN(CC(F)F)CC1)NCCS,28.2
15,O=C(CCS)Nc1ccc(C(=O)O)cc1O,21.2
16,Cc1cc2ncn(CC(O)CNC(=O)CCS)c2cc1C (configuration not stated),42.3
17,CN1Cc2cc(C(=O)NCCS)ccc2NC1=O,31
18,Cc1nc(Cl)ccc1CNC(=O)CCS,42.3
19,O=C(CCS)Nc1nnc(CC2CCCC2)s1,24.5
20,O=C(CCS)Nc1cccc2c1CN(c1ccccn1)C2,19.5
21,Cc1ncsc1C(=O)N1CCCN(C(=O)CCS)CC1,38.8
22,COCCn1nnc2c1CCN(C(=O)CCS)C2,27.9

# — PubChem BioAssay AID2202238 (Ras Initiative Chemistry Research Team, Frederick National …, 2025)
